Experimental findings from the supplement of paper PMC10338343 are described below.

± gives the standard deviation. The list shows a part of the results, in another mix than the full data.
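Note: 1 nM active piRISC with 0.1 nM target library at 33 °C single turnover.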

The subject of this assay is MIWI (PIWIL1) piRISC loaded with piRNA #1 (30 nt). The assay can be described thus: pre-steady-state target cleavage rate (min^-1); MIWI and MILI are mouse PIWI proteins and EfPiwi is from a freshwater sponge; tags in brackets are library labels; higher = faster piRNA-guided slicing of the target. Particulars: guide: piRNA #1 5'p-UGAGGUAGUAGGUUGUAUAGUAUCCAGAGG; auxiliary factor: 500 nM mouse GTSF1. An outline of the steps: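 A transcribed, DNA-blocked target RNA library […] was incubated at 33 °C for 0–8 or 0–960 min with 1 nM active affinity-purified piRISC carrying one synthetic guide, in HEPES–potassium acetate buffer with or without 500 nM GTSF1 partner protein. Uncleaved targets were then sequenced and normalised to depth and to weakly complementary targets. Data from three trials were pooled, with k3 capped at 0.0001 min^-1, and a burst-and-steady-state fit yielded the pre-steady-state cleavage rate.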
Take GGAGACCUAUCUAGACAACCUACUACCUCA: the “pre-steady-state target cleavage rate” value is 0.332 ± 0.037.

With GGAGAGGAAUCUAUACAACCUACUACCUCA, the “pre-steady-state target cleavage rate” value worked out at 1.38 ± 0.077.

In the case of GGAGACCAUACUAUACAACCUACUUCCUGA, the “pre-steady-state target cleavage rate” value was 0.32 ± 0.049.

As for GGAGAGGAUACUAAACAACCUACUACGUCA, the “pre-steady-state target cleavage rate” value was 0.279 ± 0.022.

In the case of GGUGUGGAUUCUAUACAACCUACUACCUCA, the “pre-steady-state target cleavage rate” value was found to be 1.83 ± 0.12.

Take GGAGAGGAUACUAUAGAACCUACUACCUGA: the “pre-steady-state target cleavage rate” value is 0.107 ± 0.021.

In the case of GGAGUGGAUACUAUAGAACCUAGUACCUCA, the “pre-steady-state target cleavage rate” value came out at 0.00753 ± 0.0026.

With GGAGACCUAUGAUAUGUUCCUACUACCCUCA, the “pre-steady-state target cleavage rate” value is below 0.0001.

On to GGAGUGGAUACUAUAGCAACCUACUACCUCA, for which the “pre-steady-state target cleavage rate” value amounted to 0.907 ± 0.13.

For GGAGACCUUACUAUACAACCUAGUACGUCA, the “pre-steady-state target cleavage rate” value is 0.2 ± 0.041.

GGUCUGGUAACUAUACAACCUACUACCUCA: the “pre-steady-state target cleavage rate” value was 1.71 ± 0.097.

For GGAGAGGAUACUAUACAACCUACUACCUACA, the “pre-steady-state target cleavage rate” value came to 1.18 ± 0.064.

Consider GCUGUGGAUACUAUUCAACCUACUACCUCA, for which the “pre-steady-state target cleavage rate” value stood at 1.74 ± 0.12.

On to GGAGACCAUACUAUACUACCUACUACCUGA, for which the “pre-steady-state target cleavage rate” value was determined as 0.472 ± 0.04.

Consider GGAGACCUAUCUAUACAACCUAGUAGCUCA, for which the “pre-steady-state target cleavage rate” value came to 0.00684 ± 0.0024.

GCUCUGGAAACUUUACAACCUACUACCUCA: the “pre-steady-state target cleavage rate” value was 1.59 ± 0.12.

For the sequence GGUCUGGAUACUAUACUACCUACUACCUCA, the “pre-steady-state target cleavage rate” value came out at 1.5 ± 0.091.

Consider GCUCUGGUUACUAUACAACCUAGUACCUCA, for which the “pre-steady-state target cleavage rate” value came to 0.6 ± 0.07.

On to GCUCUGGUUACUAUACUACCUACUACCUCA, for which the “pre-steady-state target cleavage rate” value was 1.56 ± 0.1.

In the case of GGAGUGGAUACCAUACAACCUACUACCUCA, the “pre-steady-state target cleavage rate” value was found to be 1.72 ± 0.084.

For GGACUGGAUCUAUACAACCUACUACCUCA, the “pre-steady-state target cleavage rate” value is 1.69 ± 0.12.

Take GCUCUGGAUUCUUUACAACCUACUACCUCA: the “pre-steady-state target cleavage rate” value amounted to 0.448 ± 0.054.

GGAGACCAGACUAUACAACCUACUACCUCA: the “pre-steady-state target cleavage rate” value came out at 1.15 ± 0.12.

Regarding GGAGACCUAACUAUACAACCUACUACCUUCA, the “pre-steady-state target cleavage rate” value turned out to be 0.679 ± 0.059.
